# Results as given in publication PMC4336329 (PLoS ONE, 2015).
# The whole screen tested about 310,000 compounds, of which about 14,000 (4.5%) showed an effect of 50% or more. Effects have a minus sign here. The list shows a part of the results.
# Biological target: human ether-à-go-go-related gene (hERG) potassium channel (human, UniProt Q12809)
# Test: primary screen, population patch clamp on CHO cells stably expressing hERG
# 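Note: peak tail current of the secondary pulse compared with the same well before compound.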
# human ether-à-go-go-related gene (hERG) potassium channel, sequence (Q12809 whole entry, looked up): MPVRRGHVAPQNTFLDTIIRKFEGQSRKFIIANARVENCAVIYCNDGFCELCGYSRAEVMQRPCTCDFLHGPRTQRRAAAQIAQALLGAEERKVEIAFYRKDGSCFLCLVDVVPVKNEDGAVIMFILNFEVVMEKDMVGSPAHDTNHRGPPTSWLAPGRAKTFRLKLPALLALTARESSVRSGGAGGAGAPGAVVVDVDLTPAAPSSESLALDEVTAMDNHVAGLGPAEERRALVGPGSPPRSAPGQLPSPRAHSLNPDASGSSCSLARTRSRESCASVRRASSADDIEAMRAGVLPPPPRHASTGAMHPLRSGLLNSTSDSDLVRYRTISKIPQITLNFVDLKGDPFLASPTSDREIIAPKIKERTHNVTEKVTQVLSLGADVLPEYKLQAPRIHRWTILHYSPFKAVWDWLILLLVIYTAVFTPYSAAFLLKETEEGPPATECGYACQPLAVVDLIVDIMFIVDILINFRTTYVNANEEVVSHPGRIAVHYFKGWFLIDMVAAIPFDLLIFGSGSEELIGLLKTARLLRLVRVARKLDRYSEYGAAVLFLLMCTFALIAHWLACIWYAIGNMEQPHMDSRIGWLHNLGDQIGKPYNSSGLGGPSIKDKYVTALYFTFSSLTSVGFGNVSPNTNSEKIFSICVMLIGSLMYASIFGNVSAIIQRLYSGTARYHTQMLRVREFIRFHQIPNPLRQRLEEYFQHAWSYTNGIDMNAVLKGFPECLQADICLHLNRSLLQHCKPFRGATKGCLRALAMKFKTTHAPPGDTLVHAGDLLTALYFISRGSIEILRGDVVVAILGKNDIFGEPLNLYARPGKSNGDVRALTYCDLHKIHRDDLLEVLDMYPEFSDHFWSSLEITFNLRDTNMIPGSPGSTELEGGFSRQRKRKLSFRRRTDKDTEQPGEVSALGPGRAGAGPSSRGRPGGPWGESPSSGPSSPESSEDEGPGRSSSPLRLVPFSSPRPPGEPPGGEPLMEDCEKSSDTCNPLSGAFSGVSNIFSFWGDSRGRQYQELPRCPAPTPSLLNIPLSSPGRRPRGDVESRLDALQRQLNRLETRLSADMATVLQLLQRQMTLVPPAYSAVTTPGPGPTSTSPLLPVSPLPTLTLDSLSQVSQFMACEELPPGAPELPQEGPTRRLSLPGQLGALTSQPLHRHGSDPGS
row,SMILES,"hERG current change (%, negative = inhibition) at 10uM"
1,Cc1ccccc1/C=C/c1cccc[n+]1C.[I-],19%
2,O=C(COC(=O)CCNS(=O)(=O)c1ccccc1F)Nc1nnc(-c2ccccc2)o1,7.41%
3,Cc1cc(N2CCCCC2)nc2ccc(NC(=O)c3ccc(Br)o3)cc12,-52.9%
4,CCOC(=O)C1(Cc2ccccc2C)CCCN(C(=O)c2ccoc2)C1 (stereo not drawn),-4.49%
5,O=C(NC(=S)Nc1cc(C(F)(F)F)ccc1N1CCOCC1)c1sc2ccccc2c1Cl,2.18%
6,Fc1ccc(Nc2cccc3nccnc23)cc1,-26.5%
7,CCN(c1ccc(OC)cc1)S(=O)(=O)N1CCCC(C(=O)NCc2cccc(C)c2)C1 (stereo not drawn),-26.5%
8,Cc1nc2ccccc2nc1N1CCCC1,-4.79%
9,COc1ccc(CNc2ccc(Br)cc2)cc1,10%
10,Cc1ccccc1-n1ccnc1SCC(=O)NCc1ccco1,1.87%
11,Cc1ccc(NC(=O)CN(C(=O)N2CCN(C)CC2)S(=O)(=O)c2ccc(C)cc2)cc1,-25.7%
12,CCn1cc(C(=O)Nc2ccc(NC(=O)c3ccco3)cc2)c(=O)c2ccc(C)nc21,-4.71%
13,COc1ccc(NC(=O)N2CC(C)OC(C)C2)cc1OC (stereo not drawn),-0.483%
14,COc1ccccc1C(=O)OCCNC(=O)Cn1cnc2c1c(=O)n(C)c(=O)n2C,25.7%
15,CCOc1ccc(NC(=O)c2csc3c2CCCC3)cc1,3.72%
16,CCc1nc(NCCN)c(C#N)c2c1CSC(C)(C)C2,-18.9%
17,CCCCOc1ccc(/C=N/NC(=O)C2CCCNC2=O)cc1 (stereo not drawn),-9.28%
18,Cc1cnc(NCCc2ccccc2)s1,1.74%
19,O=C(CN1C(=O)NC2(CCCC2)C1=O)Nc1ccccc1N1CCCCC1,5.4%
20,O=c1cc(CSc2nc3cc(Cl)ccc3o2)nc2sccn12,10.4%
21,CN(C)C(=O)N=NC(=O)N(C)C,5.58%
22,O=c1cc(C23CC4CC(CC(C4)C2)C3)[nH][nH]1,-5.43%
23,COCCNCCCCOc1ccc(C)cc1[N+](=O)[O-].O=C(O)C(=O)O,-11.5%
24,O=[N+]([O-])c1ccc(N2CCOCC2)cc1N1CCCCC1,-5.12%

row,SMILES,"hERG current change (%, negative = inhibition) at 10uM"
1,CC(C)N(C(=O)CN1CCC(c2nc3ccccc3[nH]2)CC1)C(C)C,-4.13%
2,Cc1nnc(SCc2cc(=O)oc3cc(O)ccc23)n1Cc1ccccc1,-10.2%
3,CCOC(=O)Cc1csc(NC(=S)NC(=O)c2cc(OC)cc(OC)c2)n1,-1.92%
4,CCCC1=NN(C(=O)Cc2ccc([N+](=O)[O-])cc2)C(O)(C(F)(F)F)C1 (stereo not drawn),7.2%
5,COc1cc(OC)c(C(=O)O/N=C(\N)c2ccc(C)cc2)cc1OC,-12.2%
6,COCCCN1CN(S(=O)(=O)c2ccc(C)cc2C)c2nc3ccccc3nc21,-15.9%
7,O=C(CCC(=O)c1ccc(Br)cc1)Nc1cccc(C(F)(F)F)c1,6.69%
8,CN1CCN(C(=O)CCc2nc(-c3ccc(Cl)cc3)no2)CC1,-6.62%
9,COc1ccc(-c2nn3c(-c4ccccn4)nnc3s2)cc1OC,10.6%
10,C=CCn1cccc(C(=O)Nc2ccc(C)cc2)c1=O,-7.96%
11,C/C(=C\C(=O)c1ccccc1)Nc1ccc(O)cc1,8.32%
12,Cc1cccc(Nc2ncnc3ccccc23)c1.Cl,-5.93%
13,O=C(CN1C(=O)NC2(CCCC2)C1=O)N1CCN(C(=O)c2ccco2)CC1,4.41%
14,c1ccc2c(CN3CCOCC3)c3ccccc3c(CN3CCOCC3)c2c1,15.3%
15,COc1ccc(C(=O)COC(=O)c2ccccn2)cc1OC,-1.03%
16,CCOc1ccc(S(=O)(=O)N2CCOCC2)cc1NC(=O)Cc1c(F)cccc1Cl,9.66%
17,COc1ccc(-c2cc(C(=O)N(C)Cc3ccc(F)cc3)c3ccccc3n2)cc1OC,5.63%
18,OCC#CCSc1nnc(-c2ccc(Br)cc2)o1,-17.2%
19,CCCNC(=O)Cc1c(C)oc2ccccc12,5.39%
20,CCCCc1cc(=O)oc2cc(C)cc(OCc3nn[nH]n3)c12,-14.8%
21,COc1ccc(-c2nc(C(F)(F)F)c(OC)o2)cc1OC,3.39%
22,On1nnc2ccc(C(F)(F)F)cc21,33.7%
23,CC(=O)Nc1ccc(NC(=O)C(C)OC(=O)c2ccc(N(C)C)cc2)cc1 (stereo not drawn),7.41%
24,CCOC(=O)c1ccc(NC(=O)/C=C/c2cccs2)cc1,-5.15%

row,SMILES,"hERG current change (%, negative = inhibition) at 10uM"
1,O=C(Nc1ccccc1-c1ccccc1)C1CCC1,13%
2,Cc1cc(N2CCN(C)CC2)nc(=S)[nH]1,15.3%
3,CN(C)N(C(=O)c1cc(-c2cccs2)nn1-c1ccccc1)C1CCS(=O)(=O)C1 (stereo not drawn),0.00128%
4,Cn1c(N)c(C(c2ccccc2)c2c(N)n(C)c(=O)n(C)c2=O)c(=O)n(C)c1=O,2.52%
5,COc1ccc(N2CCN(Cc3cc(=O)oc4cc(-c5ccccc5)c(O)cc34)CC2)cc1,-0.18%
6,Cc1ccc(-c2nc3ccccc3[nH]2)cn1,14.9%
7,O=C(Nc1ccc2oc(-c3ccccc3Cl)nc2c1)c1cncc(Br)c1,-8.01%
8,Cn1cc(CCC(=O)N2CCCC(C(=O)c3ccc(C(C)(C)C)cc3)C2)cn1 (stereo not drawn),-37.8%
9,O=C(c1c[nH]c2ccc(S(=O)(=O)N3CCC4(CC3)OCCO4)cc2c1=O)N1CCC2(CC1)OCCO2,4.7%
10,Cc1cc(C)nc(NC(=O)c2cccc(Br)c2)n1,17.6%
11,CCOc1ccc(CN2CCNC(=O)C2CC(=O)NCc2cc(C)n(C)n2)cc1 (stereo not drawn),-1.95%
12,CCOC(=O)[C@H]1[C@H]2COc3ccc(C)cc3[C@@H]2N2C(=O)[C@@H](C)NC(=O)[C@@]12C,6.22%
13,CC(=O)c1c(C)[nH]c(C(=O)N2CCN(S(=O)(=O)c3ccc(F)c(F)c3)CC2)c1C,-1.32%
14,CCOc1cc(/C=N/NS(=O)(=O)c2ccc(OC)cc2)ccc1OCCN1CCOCC1,-53.8%
15,COc1cccc(CCNS(=O)(=O)CCNC(=O)c2cccc(OC)c2)c1,-26.2%
16,CCOc1c(Br)cc(C2NS(=O)(=O)N=C3CCCCCN32)cc1OC (stereo not drawn),22.6%
17,CC(C)CC(=O)C(=O)[O-].[Na+],-0.864%
18,CS(=O)(=O)Nc1nnc(SCC(=O)N(c2ccccc2)c2ccccc2)s1,19%
19,COCC(=O)Nc1nc2ccccc2s1,-6.01%
20,OCC1(CO)COC(/C=C/c2ccccc2)=N1,-3.43%
21,COc1cc(/C=C2/CC/C(=C/c3ccc(O)c(OC)c3)C2=O)ccc1O,-2.88%
22,COc1ccnc(-n2cccc2C=O)c1C#N,8.09%
23,COc1ccc(-c2nc3ccccn3c2C=O)cc1,9.23%
24,COc1ccc(C)cc1N(CC(=O)NC1CCCC1)C(=O)CCC(=O)Nc1cc(C)on1,5.61%

row,SMILES,"hERG current change (%, negative = inhibition) at 10uM"
1,O=C1c2ccccc2C(=O)N1CCCc1nc(-c2cccnc2)no1,-9.56%
2,Cc1ccc(C(=O)NNC(=O)c2cccc(C)c2)cc1,13.6%
3,Cc1ccc(NC(=O)CS(=O)CC(=O)Nc2cccc(C)c2C)cc1F (stereo not drawn),14.5%
4,O=C(Nc1ccc(N2CCOCC2)c(Cl)c1)c1ccccc1Cl,15.2%
5,O=C(/C=C/Nc1ccc(Br)cn1)c1cccc(OC(F)F)c1,4.45%
6,CCCc1cc(=O)oc2cc(C)cc(OC(=O)c3ccco3)c12,7.89%
7,O=C(NCc1ccco1)C1(S(=O)(=O)c2ccccc2)CC=CC1,15.8%
8,CC(C)C(NC(=O)c1ccccc1F)C(=O)OCC(=O)c1ccc(F)cc1 (stereo not drawn),-9.49%
9,CC(=O)N1CCC(N(CCCOC(C)C)C(=O)Nc2ccc(Cl)cc2)CC1,-33%
10,COc1ccccc1NC(=O)CSc1nnc(Cn2c(=O)sc3ccccc32)n1C,-44%
11,COc1ccc(C2=C(C#N)C(=O)OC2)cc1,-3.7%
12,CCCCP(=O)(CCCC)CCP(=O)(c1ccccc1)c1ccccc1,-3.22%
13,COC(=O)c1ccccc1S(=O)(=O)Nc1ccc2cn[nH]c2c1,6.26%
14,CCOC(=O)c1ccc(NC(=S)N2CCSC2c2ccc(Cl)cc2)cc1 (stereo not drawn),9.47%
15,CN(C(=O)Nc1cnccc1C(F)(F)F)C1CCCCC1,19.6%
16,CCC1=Nc2cc(C(=O)NCCN3CCOCC3)ccc2Sc2ccc(C)cc21,-82.3%
17,Cc1ccc(S(=O)(=O)N2CCC(C(=O)N[C@H](C(=O)NC3CCS(=O)(=O)C3)C(C)C)CC2)cc1 (stereo partly drawn),13.5%
18,COC(=O)c1cc(=O)n2c(-c3ccc(OC)cc3)csc2n1,1.63%
19,O=C(O)C1CCCCC1C(=O)NCCCN1CCCC1=O (stereo not drawn),24.7%
20,CCCNC1=CC(=O)CC(C)(C)C1,2.61%
21,COc1cc(OC)c2ccc(=O)oc2c1C(CCN1CCN(c2ccccc2)CC1)c1ccc(N(C)C)cc1 (stereo not drawn),-11.7%
